PubChem BioAssay AID1745845 (National Center for Advancing Translational Sciences (NCATS), 2022)
Among all 360,000 compounds or so, about 2,600 (0.72%) were called active. Inconclusive results, whose numbers are uncertain, are shown with a selection of clear calls. The call rests on the fitted dose curve; in most records, active means well fitted inhibition curve with a large enough effect; inconclusive means small, poorly fitted or top-dose-only effect; inactive means no such curve, though single readings can be large or run the other way. Where the call is inconclusive, the potency comes from a doubtful curve fit.

test: Primary qHTS for Inhibitors of ATXN expression; details: HEK-293 ATXN2-luciferase reporter, luminescence, 24 h; activity change, negative = inhibition: at 57 µM (top of the series); further: nearly all actives have a fitted effect of over 55% in size
How it was run: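 qHTS (up to 57 uM final) was run with 24 h compound exposure of reporter cells at 37 °C. Each well was multiplexed: SteadyGlo luminescence measured ATXN2-luciferase expression after a fluorogenic Gly-Phe-AFC viability readout (25 uM final).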
On the % scale 0 is the no-effect control and ±100 the full control effect; potency means the concentration at half of the fitted maximal effect; tags describe the fitted curve by direction and shape.

Potency, active:
O=C(CN1C(=O)c2ccccc2S1(=O)=O)c1ccc2c(c1)OCCCO2 0.282 µM
c1c2c(cc3sc(N4CCOCC4)nc13)OCCO2 6.31 µM
CCN(CC)c1ccc(NC2=C(Cl)C(=O)c3ccccc3C2=O)cc1 20 µM
COc1cccc(Nc2nc(C(N)Cc3ccc(C(F)(F)F)cc3)cs2)n1 (centres undefined) 20 µM

Potency, inconclusive:
CCCC(=O)N1CCN(c2ccc(NC(=O)c3sc4ccccc4c3Cl)cc2)CC1 25.1 µM [inhibitor, partial curve, poor fit]
O=C(Cn1c(C(F)(F)F)nc2ccccc21)c1ccc(F)cc1 28.2 µM [inhibitor, partial curve, poor fit]
O=C(N/N=C/C(Br)=C\c1ccccc1)c1n[nH]c2c1CCC2 39.8 µM [inhibitor, single point]
COc1ccc(S(=O)(=O)N2CCC(c3nnnn3-c3ccccc3)CC2)cc1OC 31.6 µM [inhibitor, single point]
Cc1nc(NC(=O)c2ccccc2)sc1-c1csc(N)n1 39.8 µM [inhibitor, single point]
O=C(NCCC1=CCCCC1)C1CCC(CNc2nc(=S)[nH]c3ccccc23)CC1 (centres undefined) 21.2 µM [inhibitor, partial curve, poor fit]
O=c1[nH]c(=O)c2cc([N+](=O)[O-])cc([N+](=O)[O-])c2[nH]1 8.44 µM [inhibitor, single point]
Cc1ccc(NC(=O)Cn2cccc2)c(C)c1 39.8 µM [inhibitor, single point]
Cc1ccc(S(=O)(=O)N(C)c2ccc(OCC(=O)Nc3nc4ccccc4s3)cc2)cc1 11.2 µM [inhibitor, partial curve, poor fit]
O=C(Cn1ncc(Cl)c(Cl)c1=O)c1ccc(Cl)cc1 20 µM [inhibitor, partial curve, poor fit]
COc1ccc(C(=O)CC2(O)C(=O)N(CCc3ccccc3)c3ccc(Br)cc32)cc1OC (centres undefined) 31.6 µM [inhibitor, single point]
COc1ccc(-c2c(C#Cc3ccc(N(C)C)cc3)c3ccccc3n2C)cc1 39.8 µM [inhibitor, single point]
COc1ccc2cc(C(=O)NCc3ccccc3CN3CCCC3)ccc2c1 31.6 µM [inhibitor, partial curve, poor fit]
CN(C(=O)CSc1nc2ccc(NC(=O)c3ccccc3)cc2s1)c1ccccc1 39.8 µM [inhibitor, single point]
CC(C)C(CCNCc1ccccn1)c1ccc(Cl)cc1 (centres undefined) 3.55 µM [inhibitor, single point]
CC(C)c1ccc(NC(=S)Nc2cccc3ccccc23)cc1 39.8 µM [inhibitor, single point]
CCc1ccc(N2CC(c3nc4ccccc4n3Cc3ccccc3C)CC2=O)cc1 (centres undefined) 39.8 µM [inhibitor, single point]
C/C(N)=C(/C#N)C(=O)COC(=O)c1cc(-c2cccc(Br)c2)nc2ccccc12 25.1 µM [inhibitor, partial curve, poor fit]
CCc1ccccc1NS(=O)(=O)c1ccc2[nH]cc(C(=O)NC3CCCC3)c(=O)c2c1 35.5 µM [inhibitor, single point]
O=C(Nc1cccc(C(F)(F)F)c1)C1CCN(S(=O)(=O)c2cccc3nsnc23)CC1 20 µM [inhibitor, partial curve, poor fit]
c1ccc(N2CCN(c3ncnc4c3oc3ccccc34)CC2)cc1 31.6 µM [inhibitor, single point]
CCOc1ccccc1N(CC(=O)Nc1cccnc1)S(C)(=O)=O 25.1 µM [inhibitor, partial curve, poor fit]
CCC(CO)Oc1cc(NCc2cccc(F)c2)c2ncn(C(C)C)c2c1 (centres undefined) 20 µM [inhibitor, partial curve, poor fit]
CCOC(=O)CC(=O)CSc1nc(-c2ccccc2)cc(-c2ccc(Cl)cc2)c1C#N 31.6 µM [inhibitor, partial curve, poor fit]

Activity change, negative = inhibition, inactive:
Cc1ccccc1-n1c(C)cc(/C=N/NC(=O)c2ccncc2)c1C 33.8%
O=C(Nc1nccs1)c1cc(Cl)ccc1[N+](=O)[O-] 1.52%
O=C(NCc1ccccn1)[C@@H]1CCCN1C(=O)[C@@H]1CCCN1C(=O)c1ccc(Cl)cc1 0.679%
COc1ccc(/C(C)=N/OC/C(O)=C(\C#N)c2nc3ccccc3[nH]2)c(OC)c1 4.56%
O=C(OCC1CCCO1)c1ccc2c(c1)N(Cc1c(F)cccc1Cl)C(=O)c1ccccc1S2(=O)=O (centres undefined) 5.26%
O=C(CCc1nnc(CCc2ccccc2)o1)NC(c1cccnc1)C(F)(F)F (centres undefined) 5.74%
O=C(NCCc1ccccc1)C1(c2ccccc2)CCCC1 -12.8%
CC(=O)Nc1ccc(S(=O)(=O)NC2=C(N3CCN(c4ccc(F)cc4)CC3)C(=O)c3ccccc3C2=O)cc1 -15.3%
O=[N+]([O-])c1ccc(N2CCN(Cc3ccccc3)CC2)nc1 -24.1% [at 11.3 µM]
COc1ccc(Cn2c(NCC(C)C)nc3c2c(=O)n(C)c(=O)n3C)cc1 7.96%
COc1ccc(NC(=O)COc2cccc3c2OC(C)(C)C3)cc1OC -16.9%
Cc1ccc(S(=O)(=O)N(C)C)cc1NC(=O)CSc1ncc(C(F)(F)F)cc1Cl -33%
O=C(NCCN1CCOCC1)c1ccccc1N1C(=O)[C@@H]2Cc3c([nH]c4ccccc34)C(c3ccccc3)N2C1=O (some centres undefined) 3.23%
COc1ccc(-c2noc(-c3ccc(NCc4ccco4)c([N+](=O)[O-])c3)n2)cc1OC 4.94%
Cc1cc(C)cc(NC(=O)c2ccc(CSc3nnnn3C)cc2)c1 8.1%
O=[N+]([O-])c1cc2c(cc1/C=N/n1c(-c3ccccn3)n[nH]c1=S)OCO2 -21.5%
